{"source": "PubChem BioAssay AID686978", "about": "(National Center for Advancing Translational Sciences (NCATS), 2013)", "note": "Hit rate of the full screen: of about 420,000 compounds, about 64,000 (15%) were called active. The shares of active, inactive and inconclusive entries below differ from those in the screen. Calls come from the whole dose curve; as a rule, active = well fitted inhibition curve with a large enough effect; inconclusive = small, poorly fitted or top-dose-only effect; inactive = flat fitted curve, though single readings scatter. No potency is given beside an inconclusive call; the fits are too rough. % is set by controls: 0 for no effect and ±100 for the full control effect; potency is the fitted concentration of half-maximal effect; tags give direction and shape of the fitted curve.", "data": [{"assay": "qHTS for Inhibitors of human tyrosyl-DNA phosphodiesterase 1 (TDP1): qHTS in cells in absence of CPT; note: nearly all actives have a fitted effect of over 55% in size", "details": "DT40 Tdp1-/- hTDP1 cells, no CPT, ATP luminescence, 48 h; activity change, negative = growth inhibition: at 46.2 µM (top of the series)", "how_it_was_run": "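Cells were dispensed at 400 per well, compounds added by pin tool, plates incubated ≥48 hr at 37 °C, then CellTiter-Glo added for 30 min at room temperature before luminescence reading. Line: DT40 Tdp1-/- complemented with hTDP1; camptothecin omitted.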", "values": [{"compound": "COc1ccc(C(=O)N2CCN(C(=O)c3ccco3)CC2)cc1", "activity change, negative = growth inhibition": "inactive: -0.319%"}, {"compound": "COc1ccc(CNC(=O)C(=O)NCC2OCCN2C(=O)c2ccc(OC)cc2)cc1", "note": "(stereo not given)", "activity change, negative = growth inhibition": "inactive: -16.3%"}, {"compound": "CCOc1ccc(OCCCC(=O)N2CCN(S(=O)(=O)c3ccc(Cl)cc3)CC2)cc1", "Potency": "inconclusive [inhibitor, single point]"}, {"compound": "CC(C)c1ccc(NC(=O)c2cccc3c2C(=O)N(C2CCCCC2)C3)cc1", "activity change, negative = growth inhibition": "inactive: -8.04%"}, {"compound": "CCC1(c2ccccc2)NC(=O)N(CC(=O)Nc2ccccc2N2CCCCC2)C1=O", "note": "(stereo not given)", "Potency": "inconclusive [inhibitor, single point]"}, {"compound": "CC(=O)c1ccc(N/N=C(/C(N)=O)C2=NC(C)(C)Cc3ccccc32)cc1", "Potency": "active: 9.2 µM"}, {"compound": "CC1CCN(Cc2ccc(-c3nnn(CC(=O)Nc4ccccc4Cl)n3)cc2)CC1", "Potency": "active: 20.6 µM"}, {"compound": "Cc1cc(/C=N/NC(=O)c2cccc([N+](=O)[O-])c2)c(C)n1-c1ccccc1", "Potency": "inconclusive [inhibitor, single point]"}, {"compound": "COc1ccccc1N1CCN(C(=O)COc2cc(C)cc3oc(=O)cc(C)c23)CC1", "Potency": "active: 20.6 µM"}, {"compound": "CC(=O)c1ccc2noc(-c3ccccc3)c2c1", "activity change, negative = growth inhibition": "inactive: -12.4%"}, {"compound": "C[N+]1(C)CCC(OC(=O)C(O)(c2ccccc2)C2CCCC2)C1", "note": "(stereo not given)", "Potency": "inactive"}, {"compound": "O=C(CSS(=O)(=O)O)N1CCN(C(=O)c2ccoc2)CC1", "activity change, negative = growth inhibition": "inactive: 0.92%"}, {"compound": "C#Cc1cccc(NC(=O)C2CCN(C(C)=O)CC2)c1", "activity change, negative = growth inhibition": "inactive: 0.983%"}, {"compound": "CN(CC(=O)Nc1ccccc1Cl)C(=O)CSc1nnc(-c2ccco2)n1C", "activity change, negative = growth inhibition": "inactive: 17.8%"}, {"compound": "CCOC(=O)c1sc(NC(=O)c2cccs2)cc1C", "Potency": "inconclusive [inhibitor, single point]"}, {"compound": "Cc1ccccc1CN1CCN(CC2CC2)CC1CCO", "note": "(stereo not given)", "activity change, negative = growth inhibition": "inactive: -4.88%"}, {"compound": "Cc1c2ccncc2cc2c1[nH]c1ccccc12", "Potency": "active: 6.51 µM"}, {"compound": "CC(=O)Nc1cc(C(=O)c2ccccc2)ccc1N1CCOCC1", "activity change, negative = growth inhibition": "inconclusive: -33% [inhibitor]"}, {"compound": "CCOC(=O)C(=CNc1ccc(Oc2cncc(Cl)c2)nc1)C(=O)OCC", "Potency": "inconclusive [inhibitor, single point]"}, {"compound": "O=C1Nc2cc(C(=O)N3CCC(N4CCCCC4)CC3)ccc2S/C1=C\\c1ccccc1", "Potency": "inconclusive [inhibitor, single point]"}, {"compound": "COc1ccccc1N=NNc1ccccc1OC", "Potency": "inconclusive [inhibitor, single point]"}, {"compound": "O=C(Nc1cccc([N+](=O)[O-])c1)N(c1ccccc1)c1ccccc1", "Potency": "inconclusive [inhibitor, single point]"}, {"compound": "CN1CCc2c(sc(NC(=O)C3CCCN3S(=O)(=O)c3ccc(Cl)s3)c2C(N)=O)C1", "note": "(stereo not given)", "Potency": "inconclusive [inhibitor, single point]"}, {"compound": "O=C(Oc1cc(=O)n2ccccc2n1)c1ccccc1", "Potency": "inconclusive [inhibitor, single point]"}, {"compound": "C=C1C=C(C(F)F)n2ncc(C(=O)N3CCCCC3)c2N1", "activity change, negative = growth inhibition": "inactive: 2.29%"}, {"compound": "CCOCCCNC(=O)C(c1ccc(C)cc1)N(Cc1cccs1)C(=O)c1ccc(NC(C)=O)cc1", "note": "(stereo not given)", "Potency": "active: 18.4 µM"}, {"compound": "Cc1cccc(C(=O)NC(=S)Nc2ccccc2C(F)(F)F)c1", "Potency": "inconclusive [inhibitor, single point]"}, {"compound": "Cn1cnc([N+](=O)[O-])c1Sc1nnc(-c2cccnc2)n1C", "Potency": "inconclusive [inhibitor, single point]"}, {"compound": "Fc1ccc(C2Nc3cccc4cccc(c34)N2)cc1", "Potency": "inconclusive [inhibitor, single point]"}, {"compound": "Cc1cc(N2CCN(C(C(=O)NC3CCCC3)C(C)C)CC2)c2ccccc2n1", "note": "(stereo not given)", "activity change, negative = growth inhibition": "inactive: -16.3%"}, {"compound": "CC(=O)c1ccc(NC(=O)c2sc3nc(N4CCOCC4)c4c(c3c2N)CCCC4)cc1", "Potency": "active: 20.6 µM"}, {"compound": "Cc1ccc(NC(=O)Cn2c(=O)n(CCc3ccccc3)c(=O)c3c4c(sc32)CCCC4)c(C)c1", "activity change, negative = growth inhibition": "inactive: 4.86%"}, {"compound": "CC(=O)Nc1cc(-c2ccc(C(=O)N3CCOCC3)cc2)cn2c(-c3ccc(S(C)(=O)=O)cc3)cnc12", "Potency": "active: 13 µM"}, {"compound": "COc1ccc(N2CC(NC(=O)c3cc4ccccc4o3)CC2=O)cc1OC", "note": "(stereo not given)", "Potency": "inconclusive [inhibitor, single point]"}, {"compound": "CCc1cccc(NS(=O)(=O)c2c(C)nc3sc(CC)nn3c2=O)c1", "Potency": "active: 20.6 µM"}, {"compound": "COc1ccccc1-c1ccc(SCc2ccc(C)cc2)nn1", "Potency": "active: 14.6 µM"}, {"compound": "CCOc1ccc(NC(=O)CCC(=O)NNC(=O)Nc2ccc(Cl)cc2)cc1", "activity change, negative = growth inhibition": "inactive: 2.7%"}, {"compound": "COc1ccc(S(=O)(=O)Cc2ccc(C(=O)N3CCN(c4cccc(C)c4)C(C)C3)o2)cc1", "note": "(stereo not given)", "Potency": "active: 5.17 µM"}, {"compound": "CCCC[C@@H]1Cc2[nH][nH]c(=O)c2[C@H](c2cccc3ccccc23)O1", "activity change, negative = growth inhibition": "inactive: -23.5%"}, {"compound": "COc1cc(/C=C(\\C#N)C(=O)Nc2ccc(C)cc2)ccc1OCc1cc(=O)n2nc(C)sc2n1", "activity change, negative = growth inhibition": "inactive: -11.7%"}, {"compound": "COc1cccc(-c2cnc3c(NC=O)cc(-c4cccc(C(=O)N(C)C)c4)cn23)c1", "Potency": "inconclusive [inhibitor, single point]"}, {"compound": "COc1ccc([N+](=O)[O-])cc1N(CC(=O)NCc1ccco1)S(C)(=O)=O", "activity change, negative = growth inhibition": "inactive: -17.9%"}, {"compound": "Cc1ccc(S(=O)(=O)N2CCN(C(=O)c3cc4c(s3)CCCC4)CC2)cc1", "Potency": "active: 16.4 µM"}, {"compound": "COc1ccc(C2=NS(=O)(=O)N(C)C(C(=O)N3CCCCC3)=C2)cc1OC", "Potency": "inconclusive [inhibitor, single point]"}, {"compound": "COC(=O)c1ccc(NC(=O)c2cc(=O)c3ccc(C)cc3o2)cc1", "activity change, negative = growth inhibition": "inactive: -5.97%"}, {"compound": "Cc1ccc(N2CC(NC(=O)c3ccc(S(=O)(=O)N4CCCCC4)cc3)CC2=O)cc1", "note": "(stereo not given)", "Potency": "inconclusive [inhibitor, single point]"}, {"compound": "COc1ccc(N(Cc2ccccc2)S(=O)(=O)c2cccc(C(=O)Nc3ncccc3C)c2)cc1", "Potency": "inconclusive [inhibitor, partial curve, poor fit]"}, {"compound": "Cc1ccc(C)c(NC(=S)N/N=C2\\CCc3ccccc32)c1", "Potency": "active: 20.6 µM"}, {"compound": "Fc1cccc(CNc2ncnc3cc(Cl)ccc23)c1F", "Potency": "active: 10.3 µM"}, {"compound": "CC1CCCC(NC(=O)c2ccc3c(c2)OCO3)C1C", "note": "(stereo not given)", "Potency": "inconclusive [inhibitor, single point]"}]}]}
